Measured values published in the supplement of paper PMC9446081.
Out of some 39,000 compounds screened, about 220 (0.56%) showed activity. Some of the results follow.

These compounds were tested on Escherichia coli K-12 BW25113 (assay: relative growth (OD600 normalised to plate interquartile mean) (fraction); higher = less growth inhibition, active = 0.2 or less). Conditions: 50 µM; LB; incubation time: overnight (16-24 h).
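Note: static incubation at 37 °C against the wild-type strain, values averaged over two biological replicates.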

Question: Which relative growth does the source give for `Cc1nccn1CC1CCc2c(c3ccccc3n2C)C1=O.Cl` (stereo unspecified) here?
Answer: inactive: 0.98

Question: How did the relative growth turn out when `Cc1ccc(S(=O)(=O)N(C)C[C@H]2OCCCC[C@H](C)Oc3ccc(NC(=O)Nc4ccc5c(c4)OCO5)cc3C(=O)N([C@@H](C)CO)C[C@H]2C)cc1` was run?
Answer: inactive: 1.02

Question: How did the relative growth turn out when `COc1ccc([C@H]([C@H](Cc2ccccc2)OC(C)=O)N(C[C@H](/C=C/c2ccccc2)CC(=O)N(C)C)[C@@H](Cc2ccccc2)C(OC)OC)cc1` was run?
Answer: inactive: 0.953

Question: For `Nn1c(Cn2ccnc2)nnc1Cn1ccnc1`, which relative growth is on record?
Answer: inactive: 0.874

Question: How did the relative growth turn out when `Cc1ccccc1-c1ccc2c(c1)O[C@@H](CN(C)C(=O)Nc1ccc(C(F)(F)F)cc1)[C@H](C)CN([C@H](C)CO)S2(=O)=O` was run?
Answer: inactive: 1.06

Question: How did the relative growth turn out when `C[C@@H]1CCCCO[C@@H](CN(C)S(C)(=O)=O)[C@H](C)CN([C@H](C)CO)C(=O)c2cc(NS(=O)(=O)c3ccccc3)ccc2O1` was run?
Answer: inactive: 0.997

Question: Which relative growth does the source give for `Cn1cnc(S(=O)(=O)N2C[C@@H](O)COC[C@H]3O[C@H](CC(=O)NC4CCC4)CC[C@@H]32)c1` here?
Answer: inactive: 1

Question: With `O=C(c1ccco1)N1CCNCC1` as the compound, how does the relative growth read?
Answer: inactive: 0.989

Question: For `COc1ccc(S(=O)(=O)Nc2cccc3c2O[C@@H](CN(C)C(=O)Nc2c(C)noc2C)[C@@H](C)CN([C@@H](C)CO)C3=O)cc1`, which relative growth is on record?
Answer: inactive: 0.994

Question: How did the relative growth turn out when `CN(C)CCCNC(=O)C[C@H]1C=C[C@@H](NC(=O)Cc2cccnc2)[C@H](CO)O1` was run?
Answer: inactive: 1.02

Question: Which relative growth does the source give for `Cc1ccc(S(=O)(=O)N(C)C[C@H]2OCCCC[C@@H](C)Oc3ccc(NC(=O)Nc4ccc5c(c4)OCO5)cc3C(=O)N([C@H](C)CO)C[C@@H]2C)cc1` here?
Answer: inactive: 0.976

Question: Which relative growth does the source give for `[O-][n+]1onc2c1CCc1c-2nn(-c2ccccc2)[n+]1[O-]` here?
Answer: inactive: 0.984

Question: For `Cc1noc(C)c1NC(=O)N(C)C[C@@H]1OCCCC[C@H](C)Oc2ccc(NC(=O)Cc3ccccc3)cc2C(=O)N([C@@H](C)CO)C[C@@H]1C`, which relative growth is on record?
Answer: inactive: 0.989

Question: With `COCCNC(=O)C[C@H]1CC[C@H](NS(=O)(=O)c2ccc(C)cc2)[C@H](CO)O1` as the compound, how does the relative growth read?
Answer: inactive: 1.03

Question: For `C[C@@H]1CCCCO[C@@H](CN(C)C)[C@H](C)CN([C@@H](C)CO)C(=O)c2cc(NS(=O)(=O)c3cn(C)cn3)ccc2O1`, which relative growth is on record?
Answer: inactive: 0.976

Question: Which relative growth does the source give for `CC12CCC3c4ccc(OC(=O)c5ccccc5)cc4CCC3C1CCC2O` (stereo unspecified) here?
Answer: inactive: 1.04

Question: For `C[C@@H]1CN([C@@H](C)CO)C(=O)c2cccc(NC(=O)C3CC3)c2O[C@@H]1CN(C)Cc1ccc(-c2ccccc2)cc1`, which relative growth is on record?
Answer: inactive: 1.02

Question: For `O=C(C[C@@H]1C[C@@H]2c3cc(NS(=O)(=O)c4ccc(F)cc4)ccc3O[C@@H]2[C@H](CO)O1)NCCN1CCCCC1`, which relative growth is on record?
Answer: inactive: 1.05

Question: Which relative growth does the source give for `Cn1cnc(S(=O)(=O)N[C@H]2CC[C@@H](CC(=O)NCC3CC3)O[C@H]2CO)c1` here?
Answer: inactive: 0.999

Question: For `Nc1nc(N2CCC[C@@H](Cn3cc(CO)nn3)C2)c2c[nH]nc2n1`, which relative growth is on record?
Answer: inactive: 0.999

Question: How did the relative growth turn out when `COc1ccc(/C=C/C(=O)O[C@@H]2[C@@H](O)[C@H](C)O[C@@H](O[C@H]3[C@@H]4C=CO[C@@H](O[C@H]5O[C@@H](CO)[C@H](O)[C@@H](O)[C@@H]5O)[C@@H]4[C@@]4(CO)O[C@@H]34)[C@@H]2OC(C)=O)cc1` was run?
Answer: inactive: 1.02

Question: How did the relative growth turn out when `C[C@@H]1CCCCO[C@@H](CN(C)Cc2ccc(C(=O)O)cc2)[C@@H](C)CN([C@H](C)CO)C(=O)c2cc(NC(=O)Nc3ccc(C(F)(F)F)cc3)ccc2O1` was run?
Answer: inactive: 0.993

Question: Which relative growth does the source give for `C[C@@H]1CN([C@H](C)CO)S(=O)(=O)c2ccc(Br)cc2O[C@@H]1CN(C)CC1CCOCC1` here?
Answer: inactive: 0.989

Question: How did the relative growth turn out when `O=C1Nc2ccccc2Oc2cc(Sc3ccccc3)ccc21` was run?
Answer: inactive: 1.04

Question: `Cc1ccccc1-c1ccc2c(c1)O[C@@H](CN(C)C(=O)Nc1ccc(C(F)(F)F)cc1)[C@@H](C)CN([C@@H](C)CO)S2(=O)=O` was tested. Which relative growth did it give?
Answer: inactive: 0.999

Question: For `Cc1ccc(S[C@]2(C(=O)NCC(F)(F)F)CC(=O)N(Cc3ccccc3)[C@@H]2c2ccc(CO)cc2I)cc1`, which relative growth is on record?
Answer: inactive: 0.999

Question: `CC(=O)NCCCC[C@@H]1NC(=O)[C@H]2C[C@@H](C(=O)NCCCC[N+](C)(C)C)[C@@H](c3ccc(O)cc3)N2C1=O` was tested. Which relative growth did it give?
Answer: inactive: 0.987

Question: `CC[C@H]1OC(=O)[C@H](C)[C@@H](O[C@H]2C[C@@](C)(OC)[C@@H](O)[C@H](C)O2)[C@H](C)[C@@H](O[C@@H]2O[C@H](C)C[C@H](N(C)C)[C@H]2O)[C@](C)(O)C[C@@H](C)CN(C)[C@H](C)[C@@H](O)[C@]1(C)O` was tested. Which relative growth did it give?
Answer: active: 0.0562

Question: How did the relative growth turn out when `C[C@H]1CN([C@@H](C)CO)C(=O)c2c(c3ccccc3n2C)-c2ccccc2CO[C@H]1CN(C)Cc1ccccc1` was run?
Answer: inactive: 0.971

Question: With `O=c1cccc2[nH][nH]cc1-2` as the compound, how does the relative growth read?
Answer: inactive: 1.02

Question: With `CC(C)[C@H](NC=O)C(=O)OC[C@H](O)[C@H](O)[C@H](O)[C@H](O)COC(=O)[C@H](NC=O)C(C)C` as the compound, how does the relative growth read?
Answer: inactive: 0.981

Question: For `COc1ccc(S(=O)(=O)Nc2ccc3c(c2)C(=O)N([C@H](C)CO)C[C@H](C)[C@@H](CN(C)C(=O)NC2CCCCC2)OCCCC[C@@H](C)O3)cc1`, which relative growth is on record?
Answer: inactive: 1

Question: `C[C@H]1CN([C@@H](C)CO)C(=O)Cc2cc(NC(=O)Nc3ccc(F)cc3)ccc2O[C@@H]1CN(C)Cc1ccc(C(F)(F)F)cc1` was tested. Which relative growth did it give?
Answer: inactive: 1.07

Question: `CC(=O)O` was tested. Which relative growth did it give?
Answer: inactive: 1.01

Question: Which relative growth does the source give for `C[C@@H]1CN([C@@H](C)CO)C(=O)c2cc(C#Cc3cccnc3)cnc2O[C@@H]1CN(C)S(=O)(=O)c1ccccc1F` here?
Answer: inactive: 0.988

Question: `C[C@@H]1CCCCO[C@@H](CN(C)C(=O)NC2CCCCC2)[C@H](C)CN([C@@H](C)CO)C(=O)c2cc(NC(=O)Nc3ccc(C(F)(F)F)cc3)ccc2O1` was tested. Which relative growth did it give?
Answer: inactive: 1.02

Question: How did the relative growth turn out when `c1ccc(-n2cncn2)c(Cn2cnnc2)c1` was run?
Answer: inactive: 0.991

Question: Which relative growth does the source give for `COc1ccc(S(=O)(=O)N[C@H]2CC[C@@H](CCNC(=O)CN3CCOCC3)O[C@@H]2CO)cc1` here?
Answer: inactive: 1.03

Question: For `COc1ccc(S(=O)(=O)Nc2ccc3c(c2)C(=O)N([C@H](C)CO)C[C@H](C)[C@H](CN(C)Cc2ccc(Cl)c(Cl)c2)OCCCC[C@H](C)O3)cc1`, which relative growth is on record?
Answer: inactive: 0.916

Question: `C[C@H](CO)N1C[C@H](C)[C@@H](CN(C)S(=O)(=O)c2ccc(F)cc2)Oc2ccc(NS(C)(=O)=O)cc2C1=O` was tested. Which relative growth did it give?
Answer: inactive: 0.997

Question: Which relative growth does the source give for `C[C@@H]1CCCCO[C@H](CN(C)Cc2ccc(C(=O)O)cc2)[C@@H](C)CN([C@H](C)CO)C(=O)c2cc(NC(=O)Cc3ccccc3)ccc2O1` here?
Answer: inactive: 0.998

Question: How did the relative growth turn out when `COc1ccc2c3c(n(c2c1)C)[C@@H](CO)N(C[C@]13CCN(CC1)C(=O)c1ccccc1F)C(=O)Nc1ccc(cc1)F` was run?
Answer: inactive: 1.03

Question: Which relative growth does the source give for `C[C@@H]1CN([C@@H](C)CO)C(=O)c2cccc(NC(=O)CCCCCC(=O)Nc3ccccc3N)c2O[C@H]1CN(C)C(=O)Nc1cccc2ccccc12` here?
Answer: inactive: 0.982

Question: `C[C@@H]1CN([C@H](C)CO)C(=O)c2cccc(NC(=O)Nc3cccc4ccccc34)c2O[C@H]1CN(C)C(=O)Nc1ccccc1` was tested. Which relative growth did it give?
Answer: inactive: 1.05

Question: `O=C(NCCCN1CCOCC1)[C@@H]1[C@@H](CO)[C@@H]2Cn3c(cccc3=O)[C@H]1N2C(=O)C1CCCC1` was tested. Which relative growth did it give?
Answer: inactive: 0.997

Question: With `C[C@@H]1CN([C@H](C)CO)C(=O)c2cc(NC(=O)CCC(F)(F)F)ccc2O[C@@H](C)CCCCO[C@@H]1CN(C)Cc1ccc(C(=O)O)cc1` as the compound, how does the relative growth read?
Answer: inactive: 1.05

Question: For `CCOC[C@@H](O)CN`, which relative growth is on record?
Answer: inactive: 1.03

Question: How did the relative growth turn out when `C[C@@H]1CN([C@H](C)CO)C(=O)Cc2cc(NC(=O)CCC(F)(F)F)ccc2O[C@@H]1CN(C)S(=O)(=O)c1ccccc1` was run?
Answer: inactive: 0.994

Question: Which relative growth does the source give for `C[C@H]1CCCCO[C@H](CN(C)C(=O)Nc2ccc(C(F)(F)F)cc2)[C@@H](C)CN([C@@H](C)CO)C(=O)c2cc(NC(=O)Nc3ccc4c(c3)OCO4)ccc2O1` here?
Answer: inactive: 0.987

Question: With `C[C@H]1CN([C@@H](C)CO)S(=O)(=O)c2ccc(-c3cncnc3)cc2O[C@H]1CN(C)C(=O)c1ccc2c(c1)OCO2` as the compound, how does the relative growth read?
Answer: inactive: 1.04

Question: `COc1ccc(NC(=O)Nc2ccc3c(c2)C(=O)N([C@@H](C)CO)C[C@@H](C)[C@@H](CN(C)Cc2ccc(C(=O)Nc4ccccc4N)cc2)O3)cc1` was tested. Which relative growth did it give?
Answer: inactive: 1

Question: With `CCOC(=O)N(C)C[C@H]1OCc2cn(nn2)CCCC(=O)N([C@H](C)CO)C[C@H]1C` as the compound, how does the relative growth read?
Answer: inactive: 0.998

Question: How did the relative growth turn out when `Cc1ccc(S(=O)(=O)Nc2ccc3c(c2)C(=O)N([C@H](C)CO)C[C@H](C)[C@H](CN(C)CC2CCCCC2)OCCCC[C@@H](C)O3)cc1` was run?
Answer: inactive: 1.01

Question: For `Oc1ccc2ccccc2c1` [beta-NAPHTHOL], which relative growth is on record?
Answer: inactive: 0.764

Question: `CC(C)NC(=O)Nc1ccc2c(c1)CC(=O)N([C@H](C)CO)C[C@H](C)[C@@H](CN(C)Cc1ccc(C(=O)O)cc1)O2` was tested. Which relative growth did it give?
Answer: inactive: 0.995

Question: For `C[C@@H]1CN([C@H](C)CO)C(=O)c2cc(-c3ccc(C(=O)N(C)C)cc3)cnc2O[C@H]1CN(C)C(=O)c1cccnc1`, which relative growth is on record?
Answer: inactive: 0.968

Question: How did the relative growth turn out when `C[C@H](CO)N1C[C@H](C)[C@@H](CN(C)S(=O)(=O)c2cn(C)cn2)Oc2ccc(NC(=O)CCCCCC(=O)Nc3ccccc3N)cc2C1=O` was run?
Answer: inactive: 0.997

Question: `CC(C)NC(=O)Nc1ccc2c(c1)C(=O)N([C@H](C)CO)C[C@@H](C)[C@@H](CN(C)Cc1ccccc1)OCCCC[C@H](C)O2` was tested. Which relative growth did it give?
Answer: inactive: 1

Question: Which relative growth does the source give for `Nc1ccon1` here?
Answer: inactive: 0.994

Question: Which relative growth does the source give for `CCc1nc2ccc(C(=O)N3CCN(C(=O)c4ccco4)CC3)cn2c1N(C=O)Cc1ccc(OC)cc1` here?
Answer: inactive: 0.971

Question: How did the relative growth turn out when `COc1ccc(S(=O)(=O)Nc2ccc3c(c2)CC(=O)N([C@@H](C)CO)C[C@H](C)[C@H](CN(C)Cc2ccc(C(=O)O)cc2)O3)cc1` was run?
Answer: inactive: 1
